# In the supplement of paper PMC8728848:
# The other results are listed elsewhere or left out.
# Key:
# Test in all cases: glycan array binding signal (z-score within array); higher = stronger binding
# Settings in all cases: glycan notation: IUPAC condensed, linker removed
# [1] = molecular target: Fuc(a1-2)Gal(b1-4)GlcNAc(b1-3)Gal(b1-4)GlcNAc(b1-3)Gal(b1-4)GlcNAc
# Procedure, shortened: (§1)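 Negative Z-scores can be read as non-binding. The Z-score is calculated within each array and then averaged across arrays of one protein sequence at different concentrations or buffers and across linkers. Arrays, 3228 in all, were curated from the Consortium for Functional Glycomics database and kept only where the protein sequence was available.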
# [2] = molecular target: Fuc(a1-2)Gal(b1-4)GlcNAc(b1-3)GalNAc
# Procedure, shortened: as §1
# [3] = molecular target: Fuc(a1-2)Gal(b1-4)GlcNAc(b1-3)[Fuc(a1-2)Gal(b1-4)GlcNAc(b1-6)]GalNAc
# Procedure, shortened: as §1
# [4] = molecular target: Fuc(a1-2)Gal(b1-4)GlcNAc(b1-3)[Fuc(a1-3)[Gal(b1-4)]GlcNAc(b1-6)]Gal(b1-4)Glc
# Procedure, shortened: as §1
# [5] = molecular target: Fuc(a1-2)Gal(b1-4)GlcNAc(b1-6)GalNAc
# Procedure, shortened: as §1
# [6] = molecular target: Fuc(a1-2)Gal(b1-4)GlcNAc6S
# Procedure, shortened: as §1
# [7] = molecular target: Fuc(a1-2)Gal(b1-4)[Fuc(a1-3)]GlcNAc
# Procedure, shortened: as §1
# [8] = molecular target: Fuc(a1-2)Gal(b1-4)[Fuc(a1-3)]GlcNAc(b1-2)Man(a1-3)[Fuc(a1-2)Gal(b1-4)[Fuc(a1-3)]GlcNAc(b1-2)Man(a1-6)]Man(b1-4)GlcNAc(b1-4)[Fuc(a1-6)]GlcNAc
# Procedure, shortened: as §1
# [9] = molecular target: Fuc(a1-2)Gal(b1-4)[Fuc(a1-3)]GlcNAc(b1-2)[Fuc(a1-2)Gal(b1-4)[Fuc(a1-3)]GlcNAc(b1-4)]Man(a1-3)[Fuc(a1-2)Gal(b1-4)[Fuc(a1-3)]GlcNAc(b1-2)Man(a1-6)]Man(b1-4)GlcNAc(b1-4)GlcNAc
# Procedure, shortened: as §1
# [10] = molecular target: Fuc(a1-2)Gal(b1-4)[Fuc(a1-3)]GlcNAc(b1-3)Gal(b1-4)[Fuc(a1-3)]GlcNAc
# Procedure, shortened: as §1
# [11] = molecular target: Fuc(a1-2)Gal(b1-4)[Fuc(a1-3)]GlcNAc(b1-3)Gal(b1-4)[Fuc(a1-3)]GlcNAc(b1-3)Gal(b1-4)[Fuc(a1-3)]GlcNAc
# Procedure, shortened: as §1
# [12] = molecular target: Fuc(a1-2)Gal(b1-4)[Fuc(a1-3)]GlcNAc(b1-3)GalNAc
# Procedure, shortened: as §1
# [13] = molecular target: Fuc(a1-2)Gal(b1-4)[Fuc(a1-3)]GlcNAc(b1-3)[Neu5Ac(a2-6)Gal(b1-4)GlcNAc(b1-6)]Gal(b1-4)Glc
# Procedure, shortened: as §1
# [14] = molecular target: Fuc(a1-2)Gal3S(b1-4)GlcNAc
# Procedure, shortened: as §1
# [15] = molecular target: Fuc(a1-2)Gal6S(b1-3)GlcNAc
# Procedure, shortened: as §1
# [16] = molecular target: Fuc(a1-2)Gal6S(b1-3)GlcNAc6S
# Procedure, shortened: as §1
# Fuc(a1-2)Gal6S(b1-4)Glc = molecular target: Fuc(a1-2)Gal6S(b1-4)Glc
# Procedure, shortened: as §1
# [17] = molecular target: Fuc(a1-2)Gal6S(b1-4)Glc6S
# Procedure, shortened: as §1
# Fuc(a1-2)[Gal(a1-3)]Gal = molecular target: Fuc(a1-2)[Gal(a1-3)]Gal
# Procedure, shortened: as §1
# [18] = molecular target: Fuc(a1-2)[Gal(a1-3)]Gal(b1-3)GalNAc
# Procedure, shortened: as §1
# [19] = molecular target: Fuc(a1-2)[Gal(a1-3)]Gal(b1-3)GalNAc(b1-3)Gal(a1-4)Gal(b1-4)Glc
# Procedure, shortened: as §1
# [20] = molecular target: Fuc(a1-2)[Gal(a1-3)]Gal(b1-3)GlcNAc
# Procedure, shortened: as §1
# [21] = molecular target: Fuc(a1-2)[Gal(a1-3)]Gal(b1-3)GlcNAc(b1-2)Man(a1-3)[Fuc(a1-2)[Gal(a1-3)]Gal(b1-3)GlcNAc(b1-2)Man(a1-6)]Man(b1-4)GlcNAc(b1-4)GlcNAc
# Procedure, shortened: as §1
# [22] = molecular target: Fuc(a1-2)[Gal(a1-3)]Gal(b1-3)GlcNAc(b1-2)Man(a1-3)[Fuc(a1-2)[Gal(a1-3)]Gal(b1-3)GlcNAc(b1-2)Man(a1-6)]Man(b1-4)GlcNAc(b1-4)[Fuc(a1-6)]GlcNAc
# Procedure, shortened: as §1
# [23] = molecular target: Fuc(a1-2)[Gal(a1-3)]Gal(b1-3)GlcNAc(b1-3)GalNAc
# Procedure, shortened: as §1
# [24] = molecular target: Fuc(a1-2)[Gal(a1-3)]Gal(b1-3)GlcNAc(b1-6)GalNAc
# Procedure, shortened: as §1
# [25] = molecular target: Fuc(a1-2)[Gal(a1-3)]Gal(b1-4)Glc
# Procedure, shortened: as §1
# [26] = molecular target: Fuc(a1-2)[Gal(a1-3)]Gal(b1-4)GlcNAc
# Procedure, shortened: as §1
# [27] = molecular target: Fuc(a1-2)[Gal(a1-3)]Gal(b1-4)GlcNAc(b1-2)Man
# Procedure, shortened: as §1
# [28] = molecular target: Fuc(a1-2)[Gal(a1-3)]Gal(b1-4)GlcNAc(b1-2)Man(a1-3)[Fuc(a1-2)[Gal(a1-3)]Gal(b1-4)GlcNAc(b1-2)Man(a1-6)]Man(b1-4)GlcNAc(b1-4)GlcNAc
# Procedure, shortened: as §1
binder,measurement,setting,value
PX9961J-bvu-499-24-499 (Bacteroides vulgatus) (protein) LNTDPSTAVPSDDAIKNIDDAQVALNGIYRLASAHSYYGDNYLYYADCRGEDVQARINKGAGRRVSPYYFFDVTADDNFNITLVWNQPYKVIHQANSLIEKLDAGNAGNARPEEVARIKSEALAMRGLALFDLTRLFGMPYTLDNGASLGVPIEIQTTLEDHAPERNTVAQCYEQVLKDLNDALGGLTKEKHDAYMNYWSVKALLSRVYLYMNDNENALKCAEEVINDNGGIYRLFTHDEYPSVWGKDFNSESLFEFYFTMSEPSGGSGGEGAPMVYADNVKDWNNLILTKAYLDLLNEDPEDVRHVFPHLPENAVADTLPVAAKGQPKYLIKYPGKSGSVTDAVSTVNPQDNDLCILRLSEVYLNAAEAAFKIGNTEKALTYLNAIVTRANPAKSVTSADLSLERILKERRKELVGEGHAFFDYMRNGKSVDRSGGWHLTMPEDARVIAPSDPRVALPIPQTEIDANPNIVQNPR,glycan array binding signal (z-score),[1],-0.559
same,glycan array binding signal (z-score),[2],-0.323
same,glycan array binding signal (z-score),[3],0.343
same,glycan array binding signal (z-score),[4],-0.358
same,glycan array binding signal (z-score),[5],0.475
same,glycan array binding signal (z-score),[6],0.163
same,glycan array binding signal (z-score),[7],0.154
same,glycan array binding signal (z-score),[8],0.234
same,glycan array binding signal (z-score),[9],0.434
same,glycan array binding signal (z-score),[10],0.511
same,glycan array binding signal (z-score),[11],1.49
same,glycan array binding signal (z-score),[12],2.06
same,glycan array binding signal (z-score),[13],-0.422
same,glycan array binding signal (z-score),[14],-0.03
same,glycan array binding signal (z-score),[15],0.159
same,glycan array binding signal (z-score),[16],0.438
same,glycan array binding signal (z-score),Fuc(a1-2)Gal6S(b1-4)Glc,1.05
same,glycan array binding signal (z-score),[17],-0.019
same,glycan array binding signal (z-score),Fuc(a1-2)[Gal(a1-3)]Gal,-0.142
same,glycan array binding signal (z-score),[18],0.2
same,glycan array binding signal (z-score),[19],-0.317
same,glycan array binding signal (z-score),[20],-0.174
same,glycan array binding signal (z-score),[21],-0.085
same,glycan array binding signal (z-score),[22],-0.453
same,glycan array binding signal (z-score),[23],-0.908
same,glycan array binding signal (z-score),[24],-0.925
same,glycan array binding signal (z-score),[25],-0.524
same,glycan array binding signal (z-score),[26],-0.273
same,glycan array binding signal (z-score),[27],-0.177
same,glycan array binding signal (z-score),[28],0.11
